Positions count from the first letter of the chain named. The list shows a part of the results.

In article PMC9911399, “Two distinct binding modes provide the RNA-binding protein RbFox with extraordinary sequence specificity” one finds binding signal data, which are given here for 20 molecules.

To fix the notation:
B1: GUAGCAU (DNA:RNA)
RNA: GGGAGACCGGAAUUCAGAUUGUCCGUAGCAUUUAAAUCCCGUCGUAGCCACCA
DNA 1: CAATCTGAATTCCGGTCTCCC
DNA 2: TGGTGGCTACGACGGGATT
B2: AAACAUA (DNA:RNA)
RNA: B1 RNA with G25A, U26A, G28C, C29A, A30U, U31A
DNA 1: CAATCTGAATTCCGGTCTCCC
DNA 2: TGGTGGCTACGACGGGATT
B3: ACGGUUG (DNA:RNA)
RNA: B1 RNA with G25A, U26C, A27G, C29U, A30U, U31G
DNA 1: CAATCTGAATTCCGGTCTCCC
DNA 2: TGGTGGCTACGACGGGATT
B4: CGGGAUC (DNA:RNA)
RNA: B1 RNA with G25C, U26G, A27G, C29A, A30U, U31C
DNA 1: CAATCTGAATTCCGGTCTCCC
DNA 2: TGGTGGCTACGACGGGATT
B5: AGUCAGA (DNA:RNA)
RNA: GGGAGACCGGAAUUCAGAUUGUCCAGUCAGAUUAAAUCCCGUCGUAGCCACCA
DNA 1: CAATCTGAATTCCGGTCTCCC
DNA 2: TGGTGGCTACGACGGGATT
B6: CUAUAAG (DNA:RNA)
RNA: B1 RNA with G25C, G28U, C29A, U31G
DNA 1: CAATCTGAATTCCGGTCTCCC
DNA 2: TGGTGGCTACGACGGGATT
B7: GCAAAUA (DNA:RNA)
RNA: B5 RNA with A25G, G26C, U27A, C28A, G30U
DNA 1: CAATCTGAATTCCGGTCTCCC
DNA 2: TGGTGGCTACGACGGGATT
B8: GAUCAAU (DNA:RNA)
RNA: B5 RNA with A25G, G26A, G30A, A31U
DNA 1: CAATCTGAATTCCGGTCTCCC
DNA 2: TGGTGGCTACGACGGGATT
B9: GCACGAG (DNA:RNA)
RNA: B1 RNA with U26C, G28C, C29G, U31G
DNA 1: CAATCTGAATTCCGGTCTCCC
DNA 2: TGGTGGCTACGACGGGATT
B10: GAGUCUC (DNA:RNA)
RNA: B1 RNA with U26A, A27G, G28U, A30U, U31C
DNA 1: CAATCTGAATTCCGGTCTCCC
DNA 2: TGGTGGCTACGACGGGATT
B11: GAAUGAG (DNA:RNA)
RNA: B1 RNA with U26A, G28U, C29G, U31G
DNA 1: CAATCTGAATTCCGGTCTCCC
DNA 2: TGGTGGCTACGACGGGATT
B12: GUGUGGG (DNA:RNA)
RNA: B1 RNA with A27G, G28U, C29G, A30G, U31G
DNA 1: CAATCTGAATTCCGGTCTCCC
DNA 2: TGGTGGCTACGACGGGATT
B13: AACCGUG (DNA:RNA)
RNA: B5 RNA with G26A, U27C, A29G, G30U, A31G
DNA 1: CAATCTGAATTCCGGTCTCCC
DNA 2: TGGTGGCTACGACGGGATT
B14: GGGGUCC (DNA:RNA)
RNA: B1 RNA with U26G, A27G, C29U, A30C, U31C
DNA 1: CAATCTGAATTCCGGTCTCCC
DNA 2: TGGTGGCTACGACGGGATT
B15: CACUGAA (DNA:RNA)
RNA: B5 RNA with A25C, G26A, U27C, C28U, A29G, G30A
DNA 1: CAATCTGAATTCCGGTCTCCC
DNA 2: TGGTGGCTACGACGGGATT
B16: GAAGAAC (DNA:RNA)
RNA: B1 RNA with U26A, C29A, U31C
DNA 1: CAATCTGAATTCCGGTCTCCC
DNA 2: TGGTGGCTACGACGGGATT
B17: CAAUCCU (DNA:RNA)
RNA: B1 RNA with G25C, U26A, G28U, A30C
DNA 1: CAATCTGAATTCCGGTCTCCC
DNA 2: TGGTGGCTACGACGGGATT
B18: CAUGAUA (DNA:RNA)
RNA: B5 RNA with A25C, G26A, C28G, G30U
DNA 1: CAATCTGAATTCCGGTCTCCC
DNA 2: TGGTGGCTACGACGGGATT
B19: GCGGACU (DNA:RNA)
RNA: B1 RNA with U26C, A27G, C29A, A30C
DNA 1: CAATCTGAATTCCGGTCTCCC
DNA 2: TGGTGGCTACGACGGGATT
B20: UUCUCCU (DNA:RNA)
RNA: B1 RNA with G25U, A27C, G28U, A30C
DNA 1: CAATCTGAATTCCGGTCTCCC
DNA 2: TGGTGGCTACGACGGGATT

The experiment concerns the target T1, RBFOX1 RRM (Homo sapiens, UniProt Q9NWB1 109-208).
T1 sequence: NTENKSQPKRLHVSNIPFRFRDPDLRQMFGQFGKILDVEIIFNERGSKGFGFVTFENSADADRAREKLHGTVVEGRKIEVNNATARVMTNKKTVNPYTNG
Kind of experiment: EMSA; HiTS-Eq, 1 nM pool, 10 min; buffer printed only for the single-RNA assays: 10 mM Tris pH 7.5, 150 mM NaCl, 3.4 mM EDTA, 0.001% NP-40, 30 C. As to conditions: tags: His6 N-terminal (pET28a); label: 5' 32P. The method in brief:
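Purified wild-type or mutant RbFox RRM at increasing concentrations was equilibrated with 1 nM of 5′-radiolabelled RNA carrying 7 randomized nucleotides for 10 min in 50 µL. Unbound RNA was separated by 8% native PAGE and sequenced. Relative association constants came from read-count changes of each RNA species compared with the control reaction, normalised to the cognate motif.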
For orientation: A gel shift assay detects complexes by their altered migration in electrophoresis.
Take B1: the binding signal was 0.0106 KA relative to UGCAUGU. In the case of B2, the binding signal was 0.00076 KA relative to UGCAUGU. Turning to B3, the binding signal is 0.0233 KA relative to UGCAUGU. To B4 belongs 0.0318 KA relative to UGCAUGU. Regarding B5, the binding signal was 0.0136 KA relative to UGCAUGU. As to B6, the binding signal is 0.0115 KA relative to UGCAUGU. To B7 belongs 0.000733 KA relative to UGCAUGU; to B8, 0.00806 KA relative to UGCAUGU. To B9 belongs 0.0362 KA relative to UGCAUGU; to B10, 0.032 KA relative to UGCAUGU. Take B11: the binding signal was 0.0255 KA relative to UGCAUGU.

For the molecule B12, the binding signal is 0.0132 KA relative to UGCAUGU. With B13 the figure was 0.00314 KA relative to UGCAUGU.

For the molecule B14, the binding signal was 0.0259 KA relative to UGCAUGU. For the molecule B15, the binding signal was 0.00363 KA relative to UGCAUGU. With B16 the figure was 0.00453 KA relative to UGCAUGU; with B17, 0.00198 KA relative to UGCAUGU; with B18, 0.00374 KA relative to UGCAUGU.

In the case of B19, the binding signal is 0.00605 KA relative to UGCAUGU. For B20, the binding signal was 0.00904 KA relative to UGCAUGU.
